Test results from publication PMC4187115 (Chembiochem : a European journal of chemical biology, 2014).
Residues, ends and D or L forms follow the SMILES beside them. *: point of attachment. Cbz = O=C(OCc1ccccc1)*

Legend:
[1] = molecular target: T1, p97 (Homo sapiens, UniProt P55072); assay: Functional chromatography on p97-resin; type: binding; details: from crude extract in PBK, without ATP
[2] = test system: caspase 3; assay: Western blot, apoptosis; type: cell-based; details: HEK293 cells, 24 h at 37 °C; 1 at 10-50 µM, 2 at 1-10 µM, 3 at 1-20 µM
[3] = molecular target: recombinant E. coli FtsZ (Escherichia coli, UniProt P0A9A6); details: from crude extract in PBK
UniProt P0A9A6, sequence (P0A9A6 whole entry): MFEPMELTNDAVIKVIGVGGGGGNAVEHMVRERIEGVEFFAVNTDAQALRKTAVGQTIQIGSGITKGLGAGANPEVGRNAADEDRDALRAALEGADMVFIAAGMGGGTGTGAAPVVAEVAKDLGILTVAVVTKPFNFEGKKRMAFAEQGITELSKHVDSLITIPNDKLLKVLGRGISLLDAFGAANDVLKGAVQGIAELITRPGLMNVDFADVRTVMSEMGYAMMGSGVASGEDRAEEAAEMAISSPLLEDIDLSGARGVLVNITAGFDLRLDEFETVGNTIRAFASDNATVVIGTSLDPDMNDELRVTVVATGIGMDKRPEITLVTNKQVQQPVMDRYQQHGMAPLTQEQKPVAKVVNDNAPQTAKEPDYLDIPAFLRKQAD

[4] = test system: p97-Cys0; assay: ATPase assay of the cysteine-less p97 variant; type: biochemical; details: relative to wt-p97
[5] = molecular target: T1, p97; assay: Malachite green ATPase assay of p97; details: for mode of inhibition relative to ATP: dose-response at 100 µM, 500 µM and 1 mM ATP; for IC50: read-out: IC50 value, inhibition of the ATPase activity of p97, 50 nM p97 hexamer, 100 µM ATP, malachite green
[6] = test system: endoplasmic reticulum associated protein degradation (ERAD) pathway; assay: ERAD reporter assay, HEK293 cells expressing TCRα-GFP; type: cell-based; details: versus DMSO control
[7] = test system: HEK293 cell line; assay: Cytotoxicity in the HEK293 cell line; details: read-out: EC50 value (cytotoxicity); HEK293 cells
[8] = test system: HA-CD3δ; assay: Western blot, HA-CD3δ in HEK293 cells; type: cell-based; details: 24 h at 37 °C, MG132 at 5 µM
[9] = test system: TCRα-GFP; assay: Western blot, TCRα-GFP in HEK293 cells; type: cell-based; details: 24 h at 37 °C, MG132 at 5 µM

T1 sequence (P55072 whole entry): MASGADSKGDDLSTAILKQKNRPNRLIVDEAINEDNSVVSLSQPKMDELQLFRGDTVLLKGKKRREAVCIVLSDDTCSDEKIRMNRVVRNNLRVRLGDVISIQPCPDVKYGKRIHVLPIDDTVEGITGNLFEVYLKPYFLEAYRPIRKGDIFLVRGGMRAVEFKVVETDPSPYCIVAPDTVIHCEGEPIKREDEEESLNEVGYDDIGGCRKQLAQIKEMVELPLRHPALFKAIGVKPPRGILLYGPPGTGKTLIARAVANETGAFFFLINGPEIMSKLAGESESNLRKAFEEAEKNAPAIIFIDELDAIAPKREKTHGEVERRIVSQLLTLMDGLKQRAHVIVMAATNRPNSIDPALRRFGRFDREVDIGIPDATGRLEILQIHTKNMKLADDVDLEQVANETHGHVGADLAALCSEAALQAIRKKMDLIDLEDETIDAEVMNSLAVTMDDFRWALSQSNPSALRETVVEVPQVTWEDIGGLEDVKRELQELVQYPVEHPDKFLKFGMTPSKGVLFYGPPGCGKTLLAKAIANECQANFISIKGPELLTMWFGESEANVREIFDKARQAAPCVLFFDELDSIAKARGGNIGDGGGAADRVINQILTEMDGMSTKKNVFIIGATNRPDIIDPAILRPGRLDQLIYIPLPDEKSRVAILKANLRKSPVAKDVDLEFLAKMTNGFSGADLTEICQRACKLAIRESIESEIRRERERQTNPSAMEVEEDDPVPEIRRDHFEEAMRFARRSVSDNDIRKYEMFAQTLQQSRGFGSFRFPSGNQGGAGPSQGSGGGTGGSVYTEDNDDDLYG

| Compound | binding to p97-resin [1] | apoptosis (caspase 3 status) [2] | binding to FtsZ-resin (protein binding control) [3] | activity against p97-Cys0 [4] | mode of inhibition relative to ATP [5] | TCRα-GFP degradation by fluorescence microscopy [6] | EC50 [7] [µM] | IC50 [5] [µM] | HA-CD3δ level [8] | TCRα-GFP lower band (deglycosylated form of TCRα) level [9] |
| --- | --- | --- | --- | --- | --- | --- | --- | --- | --- | --- |
| O=C1c2cc(O)cc(O)c2C(=O)c2c(O)cc(O)cc21 [Compound 1, rheoemodin] | enhanced in the p97-resin purified fraction | did not observe apoptosis | also obtained when using FtsZ-resin | no activity | ATP competitive-like inhibition | prevented p97-mediated TCRα-GFP degradation | 113 ± 1.2 |  |  |  |
| COc1cc(OC)c2c(c1)C(=O)C1=C(C2=O)C(O)OC(C)=C1 (stereo not shown) [Compound 2, 1-hydroxydehydroherbarin] | no detectable binding | potent, dose-dependent increase in caspase 3 levels | did not appear in the protein binding controls | effectively unchanged | non-competitive |  | 2.1 ± 0.3 | 21.7 ± 2.2 |  |  |
| CC(C)C[C@@H](C=O)NC(=O)[C@H](CC(C)C)NC(=O)[C@H](CC(C)C)NC(=O)OCc1ccccc1 [MG132] (Cbz-Leu-Leu-Leu-aldehyde) |  |  |  |  |  |  |  |  | increased dramatically | dramatic increase |
| phomapyrrolidone A [Compound 3] | bound to p97-resin in the absence of ATP | quite modest apoptotic induction |  | effectively unchanged | complex pattern but was not obviously competitive-like | prevented p97-mediated TCRα-GFP degradation |  | 6.6 ± 0.1 |  |  |
